According to patent US20220227872A1 (LUDWIG INSTITUTE FOR CANCER RESEARCH, published 2022):

Target: T1, murine tumor endothelial marker 1 (TEM1) on cells (murine, UniProt Q91V98 18-765)
T1 construct: also called mTEM1; murine TEM1
T1 sequence: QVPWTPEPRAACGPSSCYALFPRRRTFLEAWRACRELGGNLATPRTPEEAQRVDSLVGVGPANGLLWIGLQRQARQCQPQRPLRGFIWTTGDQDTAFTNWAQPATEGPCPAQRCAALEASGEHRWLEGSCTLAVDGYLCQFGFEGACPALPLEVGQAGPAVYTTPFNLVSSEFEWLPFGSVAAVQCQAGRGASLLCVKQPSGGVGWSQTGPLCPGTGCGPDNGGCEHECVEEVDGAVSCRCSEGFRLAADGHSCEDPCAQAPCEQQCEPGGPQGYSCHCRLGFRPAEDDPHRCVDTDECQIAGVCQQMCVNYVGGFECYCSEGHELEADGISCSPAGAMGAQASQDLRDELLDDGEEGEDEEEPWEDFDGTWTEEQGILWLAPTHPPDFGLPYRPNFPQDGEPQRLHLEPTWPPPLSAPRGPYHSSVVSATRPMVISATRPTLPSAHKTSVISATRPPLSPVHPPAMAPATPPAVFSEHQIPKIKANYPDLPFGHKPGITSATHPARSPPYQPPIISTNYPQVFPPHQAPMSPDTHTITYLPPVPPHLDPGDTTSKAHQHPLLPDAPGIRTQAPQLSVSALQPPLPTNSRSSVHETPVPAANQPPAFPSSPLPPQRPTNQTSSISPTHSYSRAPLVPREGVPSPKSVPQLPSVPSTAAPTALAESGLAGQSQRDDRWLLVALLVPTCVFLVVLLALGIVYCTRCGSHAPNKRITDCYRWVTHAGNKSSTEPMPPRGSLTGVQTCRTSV
Experiment: FACS, scFv-Fc 0.1 µg/ml on 2H11 cells
Method: Adherent cells were detached using 10 mM EDTA, counted and resuspended in fresh, complete culture medium. All subsequent steps were performed on ice. […] After washing three times with FACS buffer, the secondary antibody, Alexa Fluor 647 AffiniPure Goat Anti-Human IgG (Jackson Immunoresearch, #109-605-098, 1:200 dilution) was added. Following incubation for 30 min the cells were washed again three times. Immediately before data acquisition, dead cells were stained with 4′,6-Diamidino-2-phenylindole (DAPI, 1:2000 dilution). Data was acquired using an LSR-II flow cytometer equipped with […] software (BD Biosciences). Data analysis and plotting were carried out using FlowJo v10 (FlowJo LLC).

binding result: binds
B1: anti-TEM1 scFv-Fc fusion 1C1mut (Fc fusion)
VH: QVQLVQSGAEVKKPGSSVKVSCKASGGTFSSYAISWVRQAPGQGLEWMGGIIPIFGTANYAQKFQGRVTITADKSTSTAYMELSSLRSEDTAVYYCASLISYYGDPTGFDYWGQGTLVTVSS
VL: QPVLTQPPSASGTPGQRVTIS[sequence of about 80 residues not given]FGGGTKLTVL
notes: also called 1C1mut variant scFv-Fc
